Assay results as given in the supplement of paper PMC9135407.
Values joined by “and” are separate entries in the source; they are usually repeats but may differ in a detail not shown here. Equal values may be shown once. Where a name gives a salt, the structure may show the parent alone. In all, about 5,800 compounds went through this assay and about 620 (11%) showed activity.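 Rule for the calls: active = score above a cut-off or among the top three wells of a plate; in these data no inactive exceeds 0.85.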 The list shows a part of the results, in another mix than the full data.

System: primary human hepatic stellate cells (donor 1)
Assay: scaled lipid accumulation score (0 = DMSO-like, 1 = nortriptyline-like); higher = stronger HSC inactivation (lipid re-accumulation), active = hit call of the paper
Settings: 48 h
[1] = library stock concentration: 10 mM
[2] = library stock concentration: 2 mM
[3] = library stock concentration: 3.33 mM
[4] = library stock concentration: 80 uM
[5] = library stock concentration: 400 uM

CS(=O)(=O)CCNCc1ccc(-c2ccc3ncnc(Nc4ccc(OCc5cccc(F)c5)c(Cl)c4)c3c2)o1.Cc1ccc(S(=O)(=O)O)cc1.Cc1ccc(S(=O)(=O)O)cc1
scaled lipid accumulation score [1]: active: 1.23

CC(C)NCC(O)c1ccc2ccccc2c1 (centres undefined) [Pronethalol hydrochloride]
scaled lipid accumulation score: inactive: 0.369 | scaled lipid accumulation score [1]: inactive: 0.221

CC(C)NCC(O)c1ccc2ccccc2c1 (centres undefined) [Pronethalol HCl]
scaled lipid accumulation score (library stock concentration: 8.7 mM): inactive: 0.224

CC(C)NCC(O)c1ccc2ccccc2c1 (centres undefined) [Pronetalol hydrochloride]
scaled lipid accumulation score [1]: inactive: 0.107

O.O.O.O.O.O.O.O.O.O.O.O.O.O.O.O.O=S(=O)([O][Al])OC[C@H]1O[C@@](COS(=O)(=O)[O][Al])(O[C@H]2O[C@H](COS(=O)(=O)[O][Al])[C@@H](OS(=O)(=O)[O][Al])[C@H](OS(=O)(=O)[O][Al])[C@H]2OS(=O)(=O)[O][Al])[C@@H](OS(=O)(=O)[O][Al])[C@@H]1OS(=O)(=O)[O][Al] [Sucralfate sodium (10% w/v in dmso)]
scaled lipid accumulation score (library stock concentration: 900 uM): inactive: ≤ 0

CCCc1c(OCC(O)COc2ccc3c(=O)cc(C(=O)O)oc3c2CCC)ccc(C(C)=O)c1O (centres undefined)
scaled lipid accumulation score [1]: inactive: ≤ -0.001

Cc1ccc(NC(=O)c2ccc(CN3CCN(C)CC3)cc2)cc1Nc1nc(-c2cccnc2)cs1 [Masitinib (AB1010, Masivet) (2 mM)]
scaled lipid accumulation score [2]: active: 1.37

Cc1ccc([N+](=O)[O-])cc1S(=O)(=O)N(C)C
scaled lipid accumulation score [1]: inactive: ≤ 0 and inactive: ≤ -0.001

Cc1c(O)c(=O)ccn1C
scaled lipid accumulation score [1]: inactive: ≤ 0

CC(C)C[C@H](NP(=O)(O)O[C@H]1O[C@H](C)[C@@H](O)[C@H](O)[C@@H]1O)C(=O)N[C@@H](Cc1c[nH]c2ccccc12)C(=O)O [Phosphoramidon disodium]
scaled lipid accumulation score [1]: inactive: ≤ 0

O=S(=O)(O)c1cc(O)ccc1O [Ethamsylate]
scaled lipid accumulation score: inactive: ≤ 0 | scaled lipid accumulation score [3]: inactive: ≤ 0 | scaled lipid accumulation score [1]: inactive: ≤ -0.001

c1ccc([C@H]2CN3CCSC3=N2)cc1 [Levamisole hydrochloride]
scaled lipid accumulation score: inactive: 0.068 | scaled lipid accumulation score (library stock concentration: 8.3 mM): inactive: ≤ 0 | scaled lipid accumulation score [1]: inactive: 0.052

CCCCC/C=C\C=C\[C@@H](O)CCCCCCCC(=O)O
scaled lipid accumulation score (library stock concentration: 100 uM): inactive: ≤ -0.021

CCC(=O)O[C@]1(C(=O)CCl)[C@@H](C)C[C@H]2[C@@H]3CCC4=CC(=O)C=C[C@]4(C)[C@@]3(F)[C@@H](O)C[C@@]21C [Clobetasol propionate]
scaled lipid accumulation score: inactive: 0.041 | scaled lipid accumulation score [3]: inactive: ≤ 0 | scaled lipid accumulation score [1]: inactive: ≤ 0 and inactive: 0.129

O=C1C[C@@H](c2ccc(O)cc2)Oc2cc(O)cc(O)c21 [Naringenin]
scaled lipid accumulation score [3]: inactive: ≤ 0 | scaled lipid accumulation score [1]: inactive: ≤ 0

O=C1C[C@@H](c2ccc(O)cc2)Oc2cc(O)cc(O)c21 [Naringenine]
scaled lipid accumulation score: inactive: ≤ 0

NC(=O)c1ccc([N+](=O)[O-])cc1Cl [Aklomide]
scaled lipid accumulation score [1]: inactive: 0.07

O=C1OCCN1/N=C/c1ccc([N+](=O)[O-])o1 [Furazolidone]
scaled lipid accumulation score: inactive: ≤ 0 | scaled lipid accumulation score (library stock concentration: 8.9 mM): inactive: ≤ -0.001 | scaled lipid accumulation score [1]: inactive: ≤ 0

CCOC(=O)[C@H](CCc1ccccc1)N[C@H]1CS[C@H](c2cccs2)CN(CC(=O)O)C1=O [Temocapril HCl]
scaled lipid accumulation score [3]: inactive: ≤ 0 | scaled lipid accumulation score [1]: inactive: 0.025

O=C1NC(=O)/C(=C/c2ccc3nccnc3c2)S1
scaled lipid accumulation score [4]: inactive: ≤ -0.016 | scaled lipid accumulation score [5]: inactive: ≤ -0.016 | scaled lipid accumulation score [2]: inactive: ≤ -0.016 | scaled lipid accumulation score [1]: inactive: ≤ -0.016

CCCCC(F)(F)[C@@]1(O)CC[C@H]2[C@@H](CC(=O)[C@@H]2CCCCCCC(=O)O)O1 [Lubiprostone]
scaled lipid accumulation score [3]: inactive: ≤ 0 | scaled lipid accumulation score [1]: inactive: ≤ 0

Oc1ccc([C@@H]2CNCc3sccc32)cc1O
scaled lipid accumulation score [1]: inactive: ≤ 0

Nc1c(S(=O)(=O)O)cc(Nc2cccc3ccccc23)c2c1C(=O)c1ccccc1C2=O
scaled lipid accumulation score [1]: inactive: 0.071

Cc1c[nH]c(-c2cnc(NCCNc3ccc(C#N)cn3)nc2-c2ccc(Cl)cc2Cl)n1.Cl
scaled lipid accumulation score [1]: active: 1.08

OC[C@H]1O[C@@H](Oc2cc(O)cc(/C=C/c3ccc(O)cc3)c2)[C@H](O)[C@@H](O)[C@@H]1O
scaled lipid accumulation score [1]: inactive: ≤ 0

Br.NC(=O)C(c1ccccc1)(c1ccccc1)[C@@H]1CCN(CCc2ccc3c(c2)CCO3)C1
scaled lipid accumulation score [1]: active: 0.88

COc1ccc(C2CNC(=O)C2)cc1OC1CCCC1 (stereo not drawn) [S- (+)-Rolipram]
scaled lipid accumulation score [3]: inactive: ≤ 0 | scaled lipid accumulation score [1]: inactive: ≤ 0

COc1ccc(C2CNC(=O)C2)cc1OC1CCCC1 (centres undefined) [Rolipram]
scaled lipid accumulation score: inactive: ≤ 0 | scaled lipid accumulation score [3]: inactive: ≤ 0 | scaled lipid accumulation score (library stock concentration: 7.3 mM): inactive: 0.021 | scaled lipid accumulation score [1]: inactive: ≤ 0 | scaled lipid accumulation score (library stock concentration: 18.2 mM): inactive: ≤ -0.021

COc1ccc(C2CNC(=O)C2)cc1OC1CCCC1 (centres undefined)
scaled lipid accumulation score [1]: inactive: ≤ 0

O=c1c(O)c(-c2ccc(O)cc2O)oc2cc(O)cc(O)c12 [Morin Hydrate]
scaled lipid accumulation score [3]: inactive: ≤ 0 | scaled lipid accumulation score [1]: inactive: ≤ 0

O=c1c(O)c(-c2ccc(O)cc2O)oc2cc(O)cc(O)c12 [Morin]
scaled lipid accumulation score [1]: inactive: 0.085 and inactive: ≤ 0

CN(Cc1ccccc1)C(=O)[C@H](Cc1ccc2ccccc2c1)NC(=O)[C@@H]1CCCN1C(=O)Nc1ccccc1[N+](=O)[O-]
scaled lipid accumulation score [1]: inactive: 0.005

CC(=O)Nc1nc(C)c(-c2ccc(Cl)c(S(=O)(=O)NCCO)c2)s1
scaled lipid accumulation score [4]: inactive: ≤ -0.016 | scaled lipid accumulation score [5]: inactive: ≤ -0.016 | scaled lipid accumulation score [2]: inactive: ≤ -0.016 | scaled lipid accumulation score [3]: inactive: ≤ 0 | scaled lipid accumulation score [1]: inactive: ≤ 0 and inactive: ≤ -0.016

c1ccc2c3c([nH]c2c1)C1C2CCC(C4CCCNC42)N1CC3 (centres undefined) [Nitrarine dihydrochloride]
scaled lipid accumulation score: inactive: ≤ 0

COc1ccccc1OCCNCC(O)COc1cccc2[nH]c3ccccc3c12 (centres undefined) [Carvedilol]
scaled lipid accumulation score [1]: active: 1.18

CC(C)c1cccc(C(C)C)c1N1C(=O)c2ccc(O)cc2C1=O
scaled lipid accumulation score [1]: inactive: 0.259

COc1ccc(C(=O)NCc2cccnc2)cc1C(=O)NCc1cccnc1 [Picotamide]
scaled lipid accumulation score (library stock concentration: 5.3 mM): inactive: 0.017 | scaled lipid accumulation score [1]: inactive: ≤ 0

COc1ccc(C(=O)NCc2cccnc2)cc1C(=O)NCc1cccnc1 [Picotamide monohydrate]
scaled lipid accumulation score: inactive: 0.043
